From PMC13022133 come the findings set out here.

Numbering of substitutions follows the chain as printed. These are yes or no findings as the source states them, for the method shown. In cells and extracts the contact can be indirect. Some binding calls cover weakened binding; strength is not graded here. Sequences can lack the tags named with a protein.

Test [1] deals with T1, GFP-tagged McIdas (GFP-McIdas WT), expressed in U2OS myc-PLK4 cells (not stated (human or mouse cDNA cloned)) (UniProt D6RGH6).
T1 sequence: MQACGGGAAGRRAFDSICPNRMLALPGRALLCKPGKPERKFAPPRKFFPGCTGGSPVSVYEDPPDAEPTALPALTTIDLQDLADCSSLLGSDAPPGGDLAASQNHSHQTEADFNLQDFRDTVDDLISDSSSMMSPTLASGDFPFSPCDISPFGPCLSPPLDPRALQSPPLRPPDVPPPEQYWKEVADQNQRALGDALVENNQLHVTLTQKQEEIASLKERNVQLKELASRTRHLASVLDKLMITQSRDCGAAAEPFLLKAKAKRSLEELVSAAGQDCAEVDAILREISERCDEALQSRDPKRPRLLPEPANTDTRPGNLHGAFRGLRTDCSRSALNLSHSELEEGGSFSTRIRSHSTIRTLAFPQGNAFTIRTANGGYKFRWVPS
Kind of test: co-IP; U2OS cells with tetracycline-induced myc-PLK4, transfected with GFP-McIdas (WT, 10A or 10D) or GFP alone; IP with anti-GFP on Protein A agarose, 3 h at 4 °C; lysis buffer 50 mM Tris-HCl pH 8.2, 150 mM NaCl, 5 mM EDTA, 5 mM MgCl2, 0.5% Triton X-100; also after 100 nM centrinone or DMSO (no effect on the interaction).

For test [2], the target named is T2, GFP-McIdas 10D (phospho-mimetic mutant) (not stated (human or mouse cDNA cloned)) (UniProt D6RGH6).
T2 sequence: T1 sequence with S55D, S58D, S86D, S87D, S167D, S246D, S271D, S333D, S338D, S340D
The description is as above.

Test [3] addresses T3, GFP-McIdas 10A (phospho-dead mutant) (not stated (human or mouse cDNA cloned)) (UniProt D6RGH6).
T3 sequence: T1 sequence with S55A, S58A, S86A, S87A, S167A, S246A, S271A, S333A, S338A, S340A
The test is described as above.

Test [4] addresses T4, HA-STIL (SCL/TAL1 interrupting locus protein) (UniProt Q15468).
T4 sequence: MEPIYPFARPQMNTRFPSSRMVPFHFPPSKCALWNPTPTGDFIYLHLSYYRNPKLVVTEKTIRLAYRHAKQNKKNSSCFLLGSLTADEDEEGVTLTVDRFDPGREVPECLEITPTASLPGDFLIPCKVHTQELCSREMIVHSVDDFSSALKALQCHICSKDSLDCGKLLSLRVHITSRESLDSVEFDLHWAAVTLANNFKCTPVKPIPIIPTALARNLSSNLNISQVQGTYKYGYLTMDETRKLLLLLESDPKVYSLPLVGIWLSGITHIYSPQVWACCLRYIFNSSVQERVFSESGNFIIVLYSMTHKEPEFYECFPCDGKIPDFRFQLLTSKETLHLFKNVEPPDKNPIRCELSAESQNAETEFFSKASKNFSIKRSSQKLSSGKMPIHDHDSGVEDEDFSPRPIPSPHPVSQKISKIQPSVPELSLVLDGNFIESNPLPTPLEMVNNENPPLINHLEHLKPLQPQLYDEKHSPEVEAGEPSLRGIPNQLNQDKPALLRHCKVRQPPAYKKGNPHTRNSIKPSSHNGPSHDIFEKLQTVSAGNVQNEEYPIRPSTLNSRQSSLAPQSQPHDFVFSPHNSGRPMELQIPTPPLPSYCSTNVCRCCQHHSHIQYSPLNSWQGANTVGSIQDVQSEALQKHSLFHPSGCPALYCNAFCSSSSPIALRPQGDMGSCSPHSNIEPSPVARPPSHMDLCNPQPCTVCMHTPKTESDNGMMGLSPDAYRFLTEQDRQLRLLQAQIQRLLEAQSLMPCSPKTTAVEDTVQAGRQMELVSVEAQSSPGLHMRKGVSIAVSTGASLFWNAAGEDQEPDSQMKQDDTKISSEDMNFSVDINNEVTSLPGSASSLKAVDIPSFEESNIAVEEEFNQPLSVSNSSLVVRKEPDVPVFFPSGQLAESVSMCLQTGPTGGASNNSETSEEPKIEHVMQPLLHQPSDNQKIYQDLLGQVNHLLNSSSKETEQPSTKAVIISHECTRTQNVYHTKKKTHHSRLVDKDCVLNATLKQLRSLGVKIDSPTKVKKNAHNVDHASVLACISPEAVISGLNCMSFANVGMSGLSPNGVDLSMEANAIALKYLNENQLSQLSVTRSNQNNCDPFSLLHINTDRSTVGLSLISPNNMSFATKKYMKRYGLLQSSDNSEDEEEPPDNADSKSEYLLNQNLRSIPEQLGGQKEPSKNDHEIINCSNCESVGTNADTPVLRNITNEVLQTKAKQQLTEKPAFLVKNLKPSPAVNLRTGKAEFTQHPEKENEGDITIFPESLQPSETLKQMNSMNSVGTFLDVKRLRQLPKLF
Kind of test: co-IP; HEK 293T cells co-transfected with HA-STIL and GFP-McIdas or GFP alone, or with SAS6-GFP (tetracycline-dependent promoter) and McIdas-HA or HA alone; IP with anti-HA on Protein A agarose.

In test [5] the target is T5, McIdas-HA (UniProt D6RGH6).
T5 sequence: T1 sequence
Described as above.

B1: myc-PLK4 (Polo-like kinase 4), tetracycline-inducible in U2OS cells (enzyme, UniProt O00444 1-970)
chain: MATCIGEKIEDFKVGNLLGKGSFAGVYRAESIHTGLEVAIKMIDKKAMYKAGMVQRVQNEVKIHCQLKHPSILELYNYFEDSNYVYLVLEMCHNGEMNRYLKNRVKPFSENEARHFMHQIITGMLYLHSHGILHRDLTLSNLLLTRNMNIKIADFGLATQLKMPHEKHYTLCGTPNYISPEIATRSAHGLESDVWSLGCMFYTLLIGRPPFDTDTVKNTLNKVVLADYEMPSFLSIEAKDLIHQLLRRNPADRLSLSSVLDHPFMSRNSSTKSKDLGTVEDSIDSGHATISTAITASSSTSISGSLFDKRRLLIGQPLPNKMTVFPKNKSSTDFSSSGDGNSFYTQWGNQETSNSGRGRVIQDAEERPHSRYLRRAYSSDRSGTSNSQSQAKTYTMERCHSAEMLSVSKRSGGGENEERYSPTDNNANIFNFFKEKTSSSSGSFERPDNNQALSNHLCPGKTPFPFADPTPQTETVQQWFGNLQINAHLRKTTEYDSISPNRDFQGHPDLQKDTSKNAWTDTKVKKNSDASDNAHSVKQQNTMKYMTALHSKPEIIQQECVFGSDPLSEQSKTRGMEPPWGYQNRTLRSITSPLVAHRLKPIRQKTKKAVVSILDSEEVCVELVKEYASQEYVKEVLQISSDGNTITIYYPNGGRGFPLADRPPSPTDNISRYSFDNLPEKYWRKYQYASRFVQLVRSKSPKITYFTRYAKCILMENSPGADFEVWFYDGVKIHKTEDFIQVIEKTGKSYTLKSESEVNSLKEEIKMYMDHANEGHRICLALESIISEEERKTRSAPFFPIIIGRKPGSTSSPKALSPPPSVDSNYPTRERASFNRMVMHSAASPTQAPILNPSMVTNEGLGLTTTASGTDISSNSLKDCLPKSAQLLKSVFVKNVGWATQLTSGAVWVQFNDGSQLVVQAGVSSISYTSPNGQTTRYGENEKLPDYIKQKLQCLSSILLMFSNPTPNFH
Regarding B1, the binding entry in test [1], in test [2] and in test [3] was “binds” in each case.

B2: GFP-tagged McIdas (GFP-McIdas), expressed in HEK 293T cells (protein, UniProt D6RGH6 1-385)
chain: T1 sequence
Turning to B2, in test [4], the binding entry was “no binding”.

B3: HsSAS6-GFP (Spindle assembly abnormal protein 6 homolog) (protein, UniProt Q6UVJ0 1-657)
chain: MSQVLFHQLVPLQVKCKDCEERRVSIRMSIELQSVSNPVHRKDLVIRLTDDTDPFFLYNLVISEEDFQSLKFQQGLLVDFLAFPQKFIDLLQQCTQEHAKEIPRFLLQLVSPAAILDNSPAFLNVVETNPFKHLTHLSLKLLPGNDVEIKKFLAGCLKCSKEEKLSLMQSLDDATKQLDFTRKTLAEKKQELDKLRNEWASHTAALTNKHSQELTNEKEKALQAQVQYQQQHEQQKKDLEILHQQNIHQLQNRLSELEAANKDLTERKYKGDSTIRELKAKLSGVEEELQRTKQEVLSLRRENSTLDVECHEKEKHVNQLQTKVAVLEQEIKDKDQLVLRTKEAFDTIQEQKVVLEENGEKNQVQLGKLEATIKSLSAELLKANEIIKKLQGDLKTLMGKLKLKNTVTIQQEKLLAEKEEKLQKEQKELQDVGQSLRIKEQEVCKLQEQLEATVKKLEESKQLLKNNEKLITWLNKELNENQLVRKQDVLGPSTTPPAHSSSNTIRSGISPNLNVVDGRLTYPTCGIGYPVSSAFAFQNTFPHSISAKNTSHPGSGTKVQFNLQFTKPNASLGDVQSGATISMPCSTDKENGENVGLESKYLKKREDSIPLRGLSQNLFSNSDHQRDGTLGALHTSSKPTALPSASSAYFPGQLPNS
On to B3, for which the binding result in test [5] is listed as “no binding”.
